Results from ChEMBL document CHEMBL2203085, “Modification of a promiscuous inhibitor shifts the inhibition from γ-secretase to FLT-3” (Bioorg Med Chem Lett, 2012).

Legend:
[1] = target: Ephrin type-A receptor 3 (Homo sapiens) (UniProt P29320); assay: Inhibition of human recombinant EPHA3 using Ulight-TK peptide as substrate assessed as residual activity at 1 uM after 60 mins relative to staurosporine
Summary of the method: (§1)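 Part of a 50-kinase panel screen at a single concentration. Residual activity is given as percent of control specific activity, calculated as (measured specific activity/control specific activity) × 100, with staurosporine as the control. The kinase-specific details are in the supplementary data.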

Danio rerio = organism: Danio rerio; assay: Toxicity against zebra fish embryo assessed as abnormalities up to 20 uM incubated from 4 hrs to 48 hrs post fertilization by microscopic analysis; assay type: ADME, organism-based; details: zebrafish, in vivo
Summary of the method: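 Zebrafish embryos were collected and kept in E2 medium at 28 °C. Compound was added at 4–5 hpf at 5 or 20 µM alongside untreated controls. Phenotypes were compared with controls at 48 hpf.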

[2] = target: High affinity nerve growth factor receptor (Homo sapiens) (UniProt P04629); assay: Inhibition of human recombinant TRKA expressed in insect cells using Ulight-Poly GAT[EAY(1:1:1)]n as substrate assessed as residual activity at 1 uM after 10 mins relative to staurosporine
Summary of the method: (§2)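 Single-point kinase-panel screen at 1 µM test concentration. Specific activity was measured and expressed as percent of the staurosporine control, calculated as (measured specific activity / control specific activity) × 100.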

[3] = target: Serine/threonine-protein kinase TAO2 (Homo sapiens) (UniProt Q9UL54); assay: Inhibition of human recombinant TAOK2 using Ulight-FLGFTYVAP as substrate assessed as residual activity at 1 uM after 60 mins relative to staurosporine; summary of the method: as §2
[4] = target: Proto-oncogene tyrosine-protein kinase Src (Homo sapiens) (UniProt P12931); assay: Inhibition of human recombinant SRC expressed in insect cells using Ulight-Poly GAT[EAY(1:1:1)]n as substrate assessed as residual activity at 1 uM after 10 mins relative to staurosporine; summary of the method: as §2
[5] = target: Serine/threonine-protein kinase SIK1 (Homo sapiens) (UniProt P57059); assay: Inhibition of human recombinant SIK expressed in Sf21 cells using CKRREILSRRPSYRK as substrate assessed as residual activity at 1 uM after 90 mins relative to staurosporine; summary of the method: as §1
[6] = target: Rho-associated protein kinase 1 (Homo sapiens) (UniProt Q13464); assay: Inhibition of human recombinant ROCK1 using Ulight-RRRSLLE as substrate assessed as residual activity at 1 uM after 30 mins relative to staurosporine; summary of the method: as §1
[7] = target: Serine/threonine-protein kinase pim-2 (Homo sapiens) (UniProt Q9P1W9); assay: Inhibition of human recombinant PIM2 expressed in insect cells using CKRREILSRRPSYRK as substrate assessed as residual activity at 1 uM after 60 mins relative to staurosporine; summary of the method: as §1
[8] = target: Serine/threonine-protein kinase PAK 2 (Homo sapiens) (UniProt Q13177); assay: Inhibition of human recombinant PAK2 expressed in Sf9 cells using Ulight-RRRSLLE as substrate assessed as residual activity at 1 uM after 60 mins relative to staurosporine; summary of the method: as §1
[9] = target: Mitogen-activated protein kinase 14 (Homo sapiens) (UniProt Q16539); assay: Inhibition of human recombinant p38alpha expressed in Escherichia coli using Ulight-CFFKNIVTPRTPPPSQGK-amide as substrate assessed as residual activity at 1 uM after 60 mins relative to staurosporine; summary of the method: as §2
[10] = target: MAP kinase-interacting serine/threonine-protein kinase 2 (Homo sapiens) (UniProt Q9HBH9); assay: Inhibition of human recombinant MNK2 expressed in Sf21 cells using CKRREILSRRPSYRK as substrate assessed as residual activity at 1 uM after 90 mins relative to staurosporine; summary of the method: as §1
[11] = target: MAP kinase-activated protein kinase 2 (Homo sapiens) (UniProt P49137); assay: Inhibition of human recombinant MAPKAP2 expressed in Escherichia coli using CKRREILSRRPSYRK as substrate assessed as residual activity at 1 uM after 15 mins relative to staurosporine; summary of the method: as §1
[12] = target: Tyrosine-protein kinase Lck (Homo sapiens) (UniProt P06239); assay: Inhibition of human recombinant LCK expressed in insect cells using Ulight-Poly GAT[EAY(1:1:1)]n as substrate assessed as residual activity at 1 uM after 30 mins relative to staurosporine; summary of the method: as §1
[13] = target: Vascular endothelial growth factor receptor 2 (Homo sapiens) (UniProt P35968); assay: Inhibition of human recombinant VEGFR2 expressed in sf9 cells using Ulight-CAGAGAIETDKEYYTVKD as substrate assessed as residual activity at 1 uM after 60 mins relative to staurosporine; summary of the method: as §2
[14] = target: Mitogen-activated protein kinase 8 (Homo sapiens) (UniProt P45983); assay: Inhibition of human recombinant JNK1 expressed in Escherichia coli using Ulight-CFFKNIVTPRTPPPSQGK-amide as substrate assessed as residual activity at 1 uM after 60 mins relative to staurosporine; summary of the method: as §1
[15] = target: Insulin receptor (Homo sapiens) (UniProt P06213); assay: Inhibition of human recombinant INSR using Ulight-Poly GAT[EAY(1:1:1)]n as substrate assessed as residual activity at 1 uM after 10 mins relative to staurosporine; summary of the method: as §1
[16] = target: Interleukin-1 receptor-associated kinase 4 (Homo sapiens) (UniProt Q9NWZ3); assay: Inhibition of human recombinant IRAK4 expressed in insect cells using Ulight-FLGFTYVAP as substrate assessed as residual activity at 1 uM after 90 mins relative to staurosporine; summary of the method: as §1
[17] = target: Mitogen-activated protein kinase kinase kinase kinase 4 (Homo sapiens) (UniProt O95819); assay: Inhibition of human recombinant HGK using Ulight-CFFKNIVTPRTPPPSQGK-amide as substrate assessed as residual activity at 1 uM after 90 mins relative to staurosporine; summary of the method: as §1
[18] = target: Fibroblast growth factor receptor 1 (Homo sapiens) (UniProt P11362); assay: Inhibition of human recombinant FGFR1 using Ulight-CAGAGAIETDKEYYTVKD as substrate assessed as residual activity at 1 uM after 60 mins relative to staurosporine; summary of the method: as §1
[19] = target: Ephrin type-A receptor 2 (Homo sapiens) (UniProt P29317); assay: Inhibition of human recombinant EPHA2 using Ulight-TK peptide as substrate assessed as residual activity at 1 uM after 30 mins relative to staurosporine; summary of the method: as §1
[20] = target: Serine/threonine-protein kinase Chk2 (Homo sapiens) (UniProt O96017); assay: Inhibition of human recombinant CHK2 expressed in insect cells using CKRREILSRRPSYRK as substrate assessed as residual activity at 1 uM after 15 mins relative to staurosporine; summary of the method: as §1
[21] = target: Cyclin-dependent kinase 1/cyclin B1 (Homo sapiens) (UniProt P06493+P14635); assay: Inhibition of human recombinant CDK1/cyclin B expressed in insect cells using Ulight-CFFKNIVTPRTPPPSQGK-amide as substrate assessed as residual activity at 1 uM after 15 mins relative to staurosporine; summary of the method: as §1
[22] = target: Calcium/calmodulin-dependent protein kinase type II subunit alpha (Homo sapiens) (UniProt Q9UQM7); assay: Inhibition of human recombinant CAMK2A using Ulight-CGSGSGRPRTSSFAEG as substrate assessed as residual activity at 1 uM after 30 mins relative to staurosporine; summary of the method: as §1
[23] = target: Tyrosine-protein kinase ABL1 (Homo sapiens) (UniProt P00519); assay: Inhibition of human recombinant ABL expressed in insect cells using Ulight-TK peptide as substrate assessed as residual activity at 1 uM after 60 mins relative to staurosporine; summary of the method: as §1
H4 = assay: Cytotoxicity against human H4 cells at 40 uM; assay type: cell-based; details: h4, 40 µM
Summary of the method: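 H4 APP#9 cells were used for cell-based toxicity testing, and toxicity was scored as yes or no at each concentration tested.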

[24] = target: Receptor-type tyrosine-protein kinase FLT3 (Homo sapiens, UniProt P36888); assay: Inhibition of human recombinant FLT3 expressed in insect cells using Ulight-CAGAGAIETDKEYYTVKD as substrate after 90 mins by LANCE method

Chain of UniProt P29317 (P29317 whole entry): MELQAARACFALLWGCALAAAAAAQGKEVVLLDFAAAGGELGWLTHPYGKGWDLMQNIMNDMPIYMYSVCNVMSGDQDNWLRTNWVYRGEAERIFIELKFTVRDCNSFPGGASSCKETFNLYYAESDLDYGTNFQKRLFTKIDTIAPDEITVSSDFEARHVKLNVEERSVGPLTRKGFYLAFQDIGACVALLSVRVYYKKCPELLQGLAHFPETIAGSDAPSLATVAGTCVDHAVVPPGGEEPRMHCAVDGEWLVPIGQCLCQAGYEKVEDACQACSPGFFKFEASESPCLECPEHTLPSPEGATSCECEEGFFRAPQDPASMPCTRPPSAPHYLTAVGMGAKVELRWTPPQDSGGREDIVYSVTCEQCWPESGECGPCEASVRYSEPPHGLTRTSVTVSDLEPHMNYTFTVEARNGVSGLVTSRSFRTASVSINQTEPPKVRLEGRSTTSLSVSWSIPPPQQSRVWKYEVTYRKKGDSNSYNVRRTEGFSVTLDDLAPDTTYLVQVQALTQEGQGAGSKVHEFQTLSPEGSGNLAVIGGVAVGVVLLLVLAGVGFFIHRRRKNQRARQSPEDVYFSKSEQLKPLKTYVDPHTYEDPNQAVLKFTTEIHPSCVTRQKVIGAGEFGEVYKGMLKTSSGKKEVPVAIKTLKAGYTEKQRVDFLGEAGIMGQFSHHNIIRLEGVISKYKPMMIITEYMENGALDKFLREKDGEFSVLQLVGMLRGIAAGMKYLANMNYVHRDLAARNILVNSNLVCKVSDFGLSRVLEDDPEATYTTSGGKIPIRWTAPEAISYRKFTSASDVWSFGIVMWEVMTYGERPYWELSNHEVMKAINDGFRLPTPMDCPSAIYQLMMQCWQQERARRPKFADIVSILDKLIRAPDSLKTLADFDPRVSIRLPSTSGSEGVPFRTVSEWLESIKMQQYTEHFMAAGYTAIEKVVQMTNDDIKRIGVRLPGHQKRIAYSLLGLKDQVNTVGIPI
Chain of UniProt O96017 (O96017 whole entry): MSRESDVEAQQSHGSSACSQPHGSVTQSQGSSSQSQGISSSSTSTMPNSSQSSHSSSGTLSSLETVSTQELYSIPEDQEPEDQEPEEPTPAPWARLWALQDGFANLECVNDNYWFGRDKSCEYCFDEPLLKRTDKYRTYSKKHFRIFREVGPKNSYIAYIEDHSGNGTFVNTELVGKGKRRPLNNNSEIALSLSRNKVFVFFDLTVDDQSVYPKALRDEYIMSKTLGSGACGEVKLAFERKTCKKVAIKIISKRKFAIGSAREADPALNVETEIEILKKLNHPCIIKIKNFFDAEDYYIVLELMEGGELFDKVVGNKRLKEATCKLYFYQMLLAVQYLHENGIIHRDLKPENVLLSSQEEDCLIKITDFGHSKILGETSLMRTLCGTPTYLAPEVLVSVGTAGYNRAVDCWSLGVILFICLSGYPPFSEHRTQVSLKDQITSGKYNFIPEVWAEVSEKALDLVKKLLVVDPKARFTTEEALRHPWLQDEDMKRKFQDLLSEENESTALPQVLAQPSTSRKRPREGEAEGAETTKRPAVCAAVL
Chain of UniProt P12931 (P12931 whole entry, looked up): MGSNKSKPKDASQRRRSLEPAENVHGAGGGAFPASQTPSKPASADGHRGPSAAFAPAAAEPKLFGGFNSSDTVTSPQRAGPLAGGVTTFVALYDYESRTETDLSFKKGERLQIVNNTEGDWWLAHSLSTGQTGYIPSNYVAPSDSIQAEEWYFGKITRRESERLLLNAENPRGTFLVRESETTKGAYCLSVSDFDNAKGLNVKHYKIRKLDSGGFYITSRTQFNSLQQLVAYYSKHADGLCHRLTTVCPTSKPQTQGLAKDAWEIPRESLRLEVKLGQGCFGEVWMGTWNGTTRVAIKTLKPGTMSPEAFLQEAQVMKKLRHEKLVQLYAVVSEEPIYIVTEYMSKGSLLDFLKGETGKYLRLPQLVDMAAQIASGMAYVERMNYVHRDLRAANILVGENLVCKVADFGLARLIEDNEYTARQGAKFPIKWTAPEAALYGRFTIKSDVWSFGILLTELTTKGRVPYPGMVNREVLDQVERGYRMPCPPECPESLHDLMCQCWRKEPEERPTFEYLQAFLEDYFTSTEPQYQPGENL
Chain of UniProt P29320 (P29320 whole entry): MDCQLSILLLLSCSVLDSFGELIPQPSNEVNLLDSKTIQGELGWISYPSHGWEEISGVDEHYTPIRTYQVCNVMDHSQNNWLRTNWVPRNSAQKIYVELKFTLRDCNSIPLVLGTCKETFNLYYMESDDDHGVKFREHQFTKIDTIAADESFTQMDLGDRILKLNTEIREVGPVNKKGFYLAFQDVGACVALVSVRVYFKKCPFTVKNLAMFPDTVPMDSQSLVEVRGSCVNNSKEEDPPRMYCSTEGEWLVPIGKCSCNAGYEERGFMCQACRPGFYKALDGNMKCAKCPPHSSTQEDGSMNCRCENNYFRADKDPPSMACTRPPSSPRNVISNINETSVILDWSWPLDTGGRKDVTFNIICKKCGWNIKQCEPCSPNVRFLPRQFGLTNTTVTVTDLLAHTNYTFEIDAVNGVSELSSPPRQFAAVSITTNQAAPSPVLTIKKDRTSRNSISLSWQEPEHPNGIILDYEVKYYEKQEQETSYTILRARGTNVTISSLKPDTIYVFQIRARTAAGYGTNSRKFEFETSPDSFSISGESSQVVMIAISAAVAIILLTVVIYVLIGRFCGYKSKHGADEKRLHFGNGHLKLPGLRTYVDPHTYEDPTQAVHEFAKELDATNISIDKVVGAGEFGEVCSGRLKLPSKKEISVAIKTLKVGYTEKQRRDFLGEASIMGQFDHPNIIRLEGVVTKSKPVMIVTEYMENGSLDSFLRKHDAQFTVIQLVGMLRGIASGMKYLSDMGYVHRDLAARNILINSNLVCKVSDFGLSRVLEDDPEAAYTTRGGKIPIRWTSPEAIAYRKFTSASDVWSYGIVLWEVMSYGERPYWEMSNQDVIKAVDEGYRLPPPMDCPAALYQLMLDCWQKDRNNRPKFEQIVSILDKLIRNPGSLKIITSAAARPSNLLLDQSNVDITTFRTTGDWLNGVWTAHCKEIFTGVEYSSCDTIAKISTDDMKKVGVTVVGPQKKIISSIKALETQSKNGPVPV
Chain of UniProt P06239 (P06239 whole entry, looked up): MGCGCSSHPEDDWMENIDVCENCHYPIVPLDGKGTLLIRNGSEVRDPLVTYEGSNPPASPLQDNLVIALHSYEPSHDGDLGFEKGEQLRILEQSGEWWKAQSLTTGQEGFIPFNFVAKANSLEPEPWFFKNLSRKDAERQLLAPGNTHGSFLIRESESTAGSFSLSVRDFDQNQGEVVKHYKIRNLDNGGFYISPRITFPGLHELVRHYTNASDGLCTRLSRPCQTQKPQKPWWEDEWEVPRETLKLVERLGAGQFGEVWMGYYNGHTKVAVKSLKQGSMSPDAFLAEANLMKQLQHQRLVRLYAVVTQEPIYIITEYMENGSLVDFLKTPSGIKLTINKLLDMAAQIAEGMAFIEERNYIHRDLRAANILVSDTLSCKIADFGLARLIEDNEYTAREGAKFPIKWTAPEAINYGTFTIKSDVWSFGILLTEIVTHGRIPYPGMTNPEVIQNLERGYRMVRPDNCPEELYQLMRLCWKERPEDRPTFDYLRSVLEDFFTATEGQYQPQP
Chain of UniProt Q9HBH9 (Q9HBH9 whole entry, looked up): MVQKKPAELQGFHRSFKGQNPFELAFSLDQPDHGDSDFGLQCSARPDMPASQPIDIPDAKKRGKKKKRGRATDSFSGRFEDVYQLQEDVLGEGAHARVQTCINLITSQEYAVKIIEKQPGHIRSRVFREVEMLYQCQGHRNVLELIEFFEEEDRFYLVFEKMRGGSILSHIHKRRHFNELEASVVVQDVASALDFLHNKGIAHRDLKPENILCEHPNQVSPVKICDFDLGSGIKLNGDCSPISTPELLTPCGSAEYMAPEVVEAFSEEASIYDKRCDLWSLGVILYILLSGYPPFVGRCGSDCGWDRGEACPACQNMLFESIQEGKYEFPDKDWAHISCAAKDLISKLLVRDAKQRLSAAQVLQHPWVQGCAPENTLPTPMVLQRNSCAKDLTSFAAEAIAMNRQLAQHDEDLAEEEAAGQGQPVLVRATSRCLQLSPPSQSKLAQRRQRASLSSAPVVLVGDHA
Chain of UniProt P06493 (P06493 whole entry, looked up): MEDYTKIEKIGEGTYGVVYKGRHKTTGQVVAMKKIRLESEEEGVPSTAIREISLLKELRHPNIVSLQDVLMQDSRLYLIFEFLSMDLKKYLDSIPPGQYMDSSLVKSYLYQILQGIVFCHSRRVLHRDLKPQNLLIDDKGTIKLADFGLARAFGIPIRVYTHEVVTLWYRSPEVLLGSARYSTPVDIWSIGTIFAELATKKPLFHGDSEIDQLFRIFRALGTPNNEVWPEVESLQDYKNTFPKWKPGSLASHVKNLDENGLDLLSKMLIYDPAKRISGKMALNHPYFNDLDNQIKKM
Chain of UniProt P06493 (P14635 whole entry, looked up, further chain): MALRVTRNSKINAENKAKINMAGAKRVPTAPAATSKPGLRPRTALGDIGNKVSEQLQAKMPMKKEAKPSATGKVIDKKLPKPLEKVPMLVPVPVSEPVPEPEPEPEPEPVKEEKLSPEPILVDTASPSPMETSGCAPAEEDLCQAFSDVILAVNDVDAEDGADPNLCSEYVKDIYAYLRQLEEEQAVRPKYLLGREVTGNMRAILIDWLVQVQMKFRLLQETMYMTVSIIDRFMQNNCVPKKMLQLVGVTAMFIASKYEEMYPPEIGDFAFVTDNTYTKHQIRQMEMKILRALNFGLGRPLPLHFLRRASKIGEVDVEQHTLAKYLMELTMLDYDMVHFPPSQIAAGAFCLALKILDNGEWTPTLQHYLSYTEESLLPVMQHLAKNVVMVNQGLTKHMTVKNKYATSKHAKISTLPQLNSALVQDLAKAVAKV

CCN(CC)CCOc1ccc(/C=C2\C(=O)Nc3ccc(Cl)cc32)cc1
Activity [1]: 101%
Activity (Danio rerio): Non-toxic
Activity [2]: 87%
Activity [3]: 95.1%
Activity [4]: 101%
Activity [5]: 119%
Activity [6]: 102%
Activity [7]: 94.7%
Activity [8]: 104%
Activity [9]: 99.4%
Activity [10]: 107%
Activity [11]: 95.3%
Activity [12]: 104%
Activity [13]: 88.4%
Activity [14]: 96.4%
Activity [15]: 113%
Activity [16]: 91.8%
Activity [17]: 27.8%
Activity [18]: 98.2%
Activity [19]: 101%
Activity [20]: 94%
Activity [21]: 106%
Activity [22]: 103%
Activity [23]: 95.4%
Activity (H4): Toxic
IC50 [24]: 4.1 nM
